First the molecules themselves.
B1: LINE1-mini (parent)
chain: GGCAGAGCUCAACACAGCGUGGCAAAGUGGCUGUGGCUAGACUGCC

The source gives no read counts; variants with many changes may rest on few reads.

Variants of B1 are the subject of the series. As to the kind of experiment: self-cleavage, relative activity (ratio to wild type); higher = more cleavage; in vitro, sequencing; the parent is a self-cleaving ribozyme.
Consider GGCAGAGCUCAACACAGCCUGGCGAACUGGCUGCGGCUGGACUGCC, for which the self-cleavage is 0.01.

On to GGCAGAGCUCAACACAGCAUGCCAAAGUGGCUGUGGUUAGACUGCC, for which the self-cleavage is 0.02.

Consider GGCAGAGCUCAACACAGCUUGGGAAAGUGGGUCUGGCUAGAGUGCC, for which the self-cleavage is 0.04.

With GGCAGAGCUCAACACAGCAUGGCAAAGUGGCUGUGGCUAGACAGAC, the self-cleavage came to 0.03.

As for GGCAGAGCUCAACACAGCAUGUCAAAGUGGCUUUGGCUAGACUUCC, the self-cleavage turned out to be 0.02.

Take GGCAGAGCUCAACACAGCAUGUCAAAGUAUCUGUGGCUAGACUGCC: the self-cleavage turned out to be 1.92.

Take GGCAGAGCUCAACACAGCAUAGCAAAGUGGCUGUGGCUAGCCUGCC: the self-cleavage was determined as 0.16.

In the case of GGCAGAGCUCAACACAGCCUGGCAUAGUGGCGGUGGCUAGACUGCC, the self-cleavage amounted to 0.21.

Consider GGCAGAGCUCAACACAGCAUGGCAAAGAGGCUGUGGCUAGAGUGCC, for which the self-cleavage was 0.02.

Regarding GGCAGAGCUCAACACAGCUUGGCGAAGUGGCUGUGGCCAGACUGCC, the self-cleavage turned out to be 0.55.

For GGCAGAGCUCAACACAGCCUGGCAAAGUGGAUUUGGCUAGACUGCC, the self-cleavage is 0.07.

Take GGCAGAGCUCAACACAGCAUGGCAAAGUGGCUGUAGAUAGACUGCC: the self-cleavage stood at 0.14.

For the variant GGCAGAGCUCAACACAGCAUGGCAAAGAGGCAGUGGCUAGACUGCC, the self-cleavage worked out at 0.31.

GGCAGAGCUCAACACAGCCAGACAAAGUGAAUGCGGCAUGACUUCC: the self-cleavage was 0.03.

With GGCAGAGCUCAACACAGCAUGGCAAAGUGGCUGUGGUUAGACCGUC, the self-cleavage worked out at 0.07.

Regarding GGCAGAGCUCAACACAGCCUGGCAAAGUGGCUUUGGAUAGACUGCC, the self-cleavage stood at 0.37.

As to GGCAGAGCUCAACACAGCUUGGCUAAGUGGCUCUGGCUAGACUGCC, the self-cleavage worked out at 0.01.

For GGCAGAGCUCAACACAGCUUGGCGAAGUGGCUGUGGCUAGUCUGCC, the self-cleavage was found to be 0.03.

With GGCAGAGCUCAACACAGCAUUGGAGAGUGGCUGUGGCUAGACUGCC, the self-cleavage stood at 0.32.

Turning to GGCAGAGCUCAACACAGCCUGGGAAUGUAGCUGUGGCUAGACUGCC, the self-cleavage worked out at 2.69.

As to GGCAGAGCUCAACACAGCCUGGGAAAGUGGCUGUGAAUAGACUGCC, the self-cleavage turned out to be 0.01.

With GGCAGAGCUCAACACAGCCGGGCAAUGUGGCUGUGGCUAGACUUCC, the self-cleavage was 0.4.

With GGCAGAGCUCAACACAGCAUGGCAAAAUGGCUGUGGCUAGACUGCU, the self-cleavage was 1.92.

GGCAGAGCUCAACACAGCCUGGCAAAGUGGCUGUGGCUAUACUGAC: the self-cleavage amounted to 0.03.

GGCAGAGCUCAACACAGCCUGGCAAAGUGGCUGUUGCUAGGCUGCC: the self-cleavage was found to be 0.02.

Turning to GGCAGAGCUCAACACAGCCGGGAUAGGUGGCUGUGGCUAGACUGCC, the self-cleavage turned out to be 0.34.

As for GGCAGAGCUCAACACAGCCUGGCAAAGUGACUGUGGCUGGACUGCA, the self-cleavage is 0.11.

In the case of GGCAGAGCUCAACACAGCUUGGCAGAGUGGCUGUGGCUAGACUGAC, the self-cleavage came to 0.03.

As to GGCAGAGCUCAACACAGCCUGGCAAAGUAGCUGUGGCUAUACUGCC, the self-cleavage turned out to be 0.41.

For GGCAGAGCUCAACACAGCCUGGCAAAGUGGCUGUGGGUACACUGCC, the self-cleavage stood at 0.05.

As to GGCAGAGCUCAACACAGCUUGGCAAUGUGGCCGUGGCUAGACUGCC, the self-cleavage worked out at 0.06.

Take GGCAGAGCUCAACACAGCAUGAAAAAGCGGCUGUGGCUAGACUGUC: the self-cleavage stood at 0.91.

As for GGCAGAGCUCAACACAGCCUGGCAAAGUGGCUGUGGCUUGACUGCU, the self-cleavage was found to be 0.07.

As to GGCAGAGCUCAACACAGCAAGGAAAAGUUGCUGGGGCUAGACUGCC, the self-cleavage came to 0.13.

Regarding GGCAGAGCUCAACACAGCCUCGCAAAGUGGCUGUGACUAGAGUGCC, the self-cleavage amounted to 0.01.

As to GGCAGAGCUCAACACAGCCCGGCAAAGUGGCUGUGGCUACACUUCC, the self-cleavage stood at 0.04.

With GGCAGAGCUCAACACAGCCUGGCAAUGUCGCUGUGGCUAGACUGCC, the self-cleavage worked out at 0.29.

On to GGCAGAGCUCAACACAGCCUGGCGUAGUGGCUGUGGCUAGACUGUC, for which the self-cleavage was 0.29.

For GGCAGAGCUCAACACAGCUUGGCAGAGUGGCUGUGGCUAGUCUGCA, the self-cleavage was 0.07.

Regarding GGCAGAGCUCAACACAGCCUGGCAAAUUGGAUGUGGCUAGACUGCC, the self-cleavage is 1.08.

For the variant GGCAGAGCUCAACACAGCCUGGCCAAGUGACUGUGGCUAGACUGCC, the self-cleavage is 0.19.

Turning to GGCAGAGCUCAACACAGCCAGGCAAAGUGGCUGUGGCUAUACUGCC, the self-cleavage came to 0.08.

For the variant GGCAGAGCUCAACACAGCCUGGCAUAGUGGGUGUGGCUAGACUGCU, the self-cleavage came to 0.55.

With GGCAGAGCUCAACACAGCCUGGCAAAGUGGCUGUGGCUAAAAUGCC, the self-cleavage turned out to be 0.29.

GGCAGAGCUCAACACAGCCUGGCAAUGUGGAUGUGUCUAGACUGCC: the self-cleavage was 0.03.

Take GGCAGAGCUCAACACAGCAUGGCAAAGUGGCUGUAGAGAGAAUGCC: the self-cleavage was found to be 0.02.

For the variant GGCAGAGCUCAACACAGCCUGGCAAAGGGGCUUUGGCUAGACUGCC, the self-cleavage was 0.28.

Consider GGCAGAGCUCAACACAGCAUCGCAAAGUGGCGGUGGCUAGGCUGGC, for which the self-cleavage stood at 0.

For GGCAGAGCUCAACACAGCAUGUCAAAAUGGCCGUGGCUAGACUGCC, the self-cleavage is 0.52.

On to GGCAGAGCUCAACACAGCCUUGCAAACUGGCUGUGGAUAGACUGCC, for which the self-cleavage was 0.41.

Take GGCAGAGCUCAACACAGCAAUGCAAAGUGGCUAUGGCUACACUGCC: the self-cleavage turned out to be 0.04.

Take GGCAGAGCUCAACACAGCAUGGCAAAUUGGCUGUGGCUAGUCUGCC: the self-cleavage was determined as 0.41.

As for GGCAGAGCUCAACACAGCCUGGCAAAUUGGCUCUGGCUAGACUGCC, the self-cleavage came to 0.07.

On to GGCAGAGCUCAACACAGCCUGGCAAAGUGGGUGUGGUUAGACUGCC, for which the self-cleavage was determined as 0.05.

GGCAGAGCUCAACACAGCCUGGCAAACUGGCUGUGGGUAGACUGCC: the self-cleavage amounted to 0.02.

For the variant GGCAGAGCUCAACACAGCCUAGCAAAGUGUCGGUGGCUAGACUGCC, the self-cleavage stood at 0.27.

The record behind these values is the RNAGym collection of RNA variant scans (doi:10.7554/elife.90254).
